# Assay results as given in the supplement of paper PMC4466236.
# In all, about 33,000 sequences were measured (“E-score (dimensionless, -0.5 to 0.5)”: median about -0.058, highest 2% from about 0.35 on). Some of the results follow.
# Tested on: MvaT
# Test: PBM 8-mer E-score (mean of HK and ME arrays) (E-score (dimensionless, -0.5 to 0.5)); higher = stronger relative binding preference; most listed sequences are background and not binding sites
# Outline: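 Full-length P. aeruginosa MvaT carrying an N-terminal glutathione S-transferase tag was tested by protein binding microarray following a previously described protocol. Two universal double-stranded 60-mer arrays, ME and HK, were used, each with a constant 25-mer primer region and a variable 35-mer region covering all 8-mers. The rank-based E-score is the mean of the two arrays, parsed with a custom script. Its range runs from -0.5 to 0.5 for each 8-mer.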
row,Sequence,PBM 8-mer E-score
1,CTATACAA,0.202
2,TAATAATA,0.477
3,ATTGGTGC,0.00889
4,GCGGCGCA,-0.101
5,GAACAAGA,-0.0658
6,GGTCCGGA,-0.142
7,CGATGTTC,-0.024
8,TAGGCTCA,-0.042
9,CAGCACCA,-0.159
10,GTTCTGAA,0.0546
11,CGGAGCGC,-0.207
12,GGCAGACC,-0.218
13,AGTGGCGC,-0.268
14,GCGTACCA,-0.241
15,CGTCAGAA,-0.00609
16,CTCTTTCA,0.00719
17,ACCTTCGT,-0.257
18,AGGGTGTG,-0.0556
19,GAGTCGGC,-0.191
20,AATCCGCC,-0.0734
21,AAATGCTT,0.194
22,CCGATCGG,-0.199
23,CTCCATGC,-0.162
24,GTTCGGAA,-0.00248
25,GGCTAGGA,-0.228

row,Sequence,PBM 8-mer E-score
1,ACGTTAGT,0.121
2,CCCCTTCA,-0.324
3,TCAGCACA,-0.0457
4,ACGGATGA,-0.215
5,ATCCAGAT,0.0948
6,CAGCTCAC,-0.326
7,CTTTGTCC,-0.0737
8,CAATCTGA,-0.0113
9,CCCGCCCA,-0.00644
10,ACCAACAG,0.0163
11,ACCCCGCC,-0.218
12,AACCTGGT,-0.0172
13,ACCAGGAA,-0.0655
14,ACACCCCT,-0.285
15,ACTAGCCT,-0.076
16,CCAGTTTA,-0.0385
17,AACTTCTA,0.292
18,TAATACCA,0.336
19,AGCGTCGG,-0.209
20,ACAGAGAG,-0.175
21,AGCGATAG,-0.182
22,CCATGTTA,0.135
23,CCTCGTAA,-0.0103
24,CGCAGGCG,-0.305
25,ACGAGACC,-0.0801

row,Sequence,PBM 8-mer E-score
1,AGGACCTA,-0.129
2,TAGGCGAA,0.0896
3,GCGGTCAC,-0.249
4,AGGTCACA,-0.21
5,AATGACAA,0.184
6,CAGGGCGG,-0.209
7,AACAACGA,0.144
8,ACTAGTGG,-0.0174
9,AGTCTGTC,-0.0632
10,AGAGACGG,-0.306
11,AGGTGTGA,-0.0136
12,CGACGCAA,-0.00367
13,TCGCCGCA,-0.141
14,ATAGCAAC,0.0976
15,AAGAGGGA,-0.199
16,CCAGTTCC,-0.215
17,CGGCGGCA,-0.201
18,CGGCAGTC,-0.252
19,TATAGCCA,0.0726
20,ATACGTTG,0.0544
21,CGCATCAC,-0.2
22,ATCTCGCC,-0.148
23,TCCGGCCA,-0.199
24,AAACCTTT,0.203
25,AAAGATCT,-0.0217

row,Sequence,PBM 8-mer E-score
1,TACTTATA,0.389
2,CATGTCGA,-0.0621
3,TAATTTGA,0.201
4,CGTCAAAC,-0.0617
5,AACCGCTA,-0.0482
6,CGCTGCGC,-0.177
7,AAGTCGAA,0.0176
8,ATCAATAA,0.308
9,GCTGTCCA,-0.136
10,CTTTGAAA,0.141
11,TCAGTCCA,-0.282
12,AACCAATT,0.239
13,AAGCTAGT,0.0286
14,TCTATGCA,0.0844
15,ACACTAAG,0.0998
16,CACGCGTA,-0.094
17,CTGTACCA,-0.181
18,AATGCTGC,0.0834
19,ATGACGTG,0.0296
20,ACGAAGCC,-0.177
21,GACCACGA,-0.184
22,GGCATTCA,0.0708
23,GCAGTGAC,-0.231
24,GTGCTAGA,0.0104
25,GGAAAAAC,0.00643

row,Sequence,PBM 8-mer E-score
1,AGCGCAAA,0.162
2,AACTAGAT,0.147
3,GACGGCGC,-0.269
4,CCCATACC,-0.191
5,GAACATCC,-0.0729
6,TCCTTACA,0.119
7,CGTCCTAC,-0.053
8,ATAGTAAT,0.353
9,AGACCAGG,-0.185
10,AGTTACAA,0.277
11,ATCTGGAA,-0.0325
12,CCGTACAC,-0.121
13,CAAGGGGG,-0.275
14,GCCACGCA,-0.169
15,AAGTGTGA,0.154
16,AGTGCACT,0.18
17,CAGGTTGC,-0.171
18,CCGGCTAG,-0.138
19,GGCCACCC,-0.29
20,GGGAGAAA,-0.174
21,GTGTATTA,0.276
22,GACCTATA,0.04
23,ACTGAACT,0.161
24,AGGCTGCA,-0.0853
25,AGCGGCCG,-0.221

row,Sequence,PBM 8-mer E-score
1,CGGCTTCC,-0.242
2,AACCCTCA,-0.038
3,GCGCTAGC,-0.217
4,CGCAGCCC,-0.334
5,GGACAGCC,-0.309
6,GGCCGACA,-0.0912
7,ATCTGGAG,-0.122
8,TAGGTTGA,0.0349
9,CCGTGTGC,-0.295
10,GCAAGACC,-0.207
11,CCTTCGGC,-0.319
12,CACATTGG,-0.103
13,ATCAATCA,0.102
14,CGGCTGAA,-0.0544
15,AAATCACT,-0.0197
16,CTGTCTCC,-0.0733
17,ACGCTCCT,-0.144
18,TACAGGTA,0.14
19,CATCGCGG,-0.0305
20,ATGCCATG,-0.224
21,TGCTGAAA,0.105
22,AGCGCATC,-0.0922
23,CGAGACGA,-0.293
24,GGCGCCCC,-0.303
25,ATTAGGCA,0.117

row,Sequence,PBM 8-mer E-score
1,AGGAATAT,0.298
2,AAACCGGC,-0.0505
3,CCTATCAC,-0.185
4,GCTTGCAC,-0.171
5,GGCGTCAC,-0.247
6,GGGCCCTA,-0.218
7,AACGAAAC,0.234
8,AAACTTTG,0.317
9,GCTCCAAC,-0.245
10,GTAACCTA,0.0624
11,AACATCTC,0.0471
12,CTGAGCCA,-0.258
13,TGAAAGCA,-0.0371
14,ACGATCAG,-0.152
15,GCCATAAC,-0.0968
16,AAGCGCAC,-0.147
17,CAGGCGCC,-0.314
18,GAGCACTC,-0.181
19,GGACACCA,-0.0615
20,CTTGATAC,0.0432
21,ACGAGCTA,-0.128
22,GAAATCCC,-0.0341
